# Data published in PubChem BioAssay AID2675 (National Center for Advancing Translational Sciences (NCATS), 2010).
# Hit rate of the full screen: of about 280,000 compounds, about 100 (0.036%) were called active. Inconclusive means that the source gave no clear call. Such entries were picked first, then a sample of the others. Calls come from the whole dose curve; as a rule, active = well fitted inhibition curve with a large enough effect in the signal ratio, with a control signal flat (not every such curve was filed as active); inconclusive = small, poorly fitted or top-dose-only effect, or effect the other way, or a change in a side signal; inactive = no such curve, though single readings can be large or run the other way; the % refers to the signal ratio. A potency beside an inconclusive call is a rough fit, not a confirmed value. A note “side channel” means that the fit belongs to a control or component signal, not to the main read-out.
# Target: Muscleblind-like protein 1 (Homo sapiens) (UniProt Q9NR56)
# Experiment: qHTS Assay for Inhibitors of MBNL1-poly(CUG) RNA binding
# Details: TR-FRET MBNL1-His/biotin-(CUG)12 binding, 665/545 ratio; activity change, negative = inhibition: at 57.5 µM (top of the series)
# Procedure, shortened: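 TR-FRET between His-tagged MBNL1 and biotin-(CUG)12 RNA, detected with Tb anti-His antibody (0.055 ng/ul) and streptavidin-XL665 (5 nM), 60 min at room temperature. Compounds titrated 92 nM to 58 uM; 665/545 nm ratio normalized to buffer and complex controls.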
# % is set by controls: 0 for no effect and ±100 for the full control effect; potency is the fitted concentration of half-maximal effect; tags give direction and shape of the fitted curve or compound fluorescence and quenching.
# Sequence of UniProt Q9NR56 (Q9NR56 whole entry, looked up): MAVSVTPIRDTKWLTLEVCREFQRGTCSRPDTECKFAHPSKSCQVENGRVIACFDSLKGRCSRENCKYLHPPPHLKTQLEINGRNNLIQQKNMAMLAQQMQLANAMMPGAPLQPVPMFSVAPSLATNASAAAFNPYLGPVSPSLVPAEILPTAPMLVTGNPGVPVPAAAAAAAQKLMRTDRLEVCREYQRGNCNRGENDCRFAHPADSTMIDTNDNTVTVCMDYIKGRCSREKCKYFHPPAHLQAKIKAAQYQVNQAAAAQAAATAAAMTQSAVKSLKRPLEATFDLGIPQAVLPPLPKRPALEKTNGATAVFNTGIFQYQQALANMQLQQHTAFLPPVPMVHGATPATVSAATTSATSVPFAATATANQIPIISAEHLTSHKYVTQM
Structure (SMILES),Potency,"activity change, negative = inhibition"
Cc1cc2[nH]c3c(c[n+](C)c4ccccc34)c2cc1C,"inconclusive: 79.4 µM [inhibitor, single point]",
COc1cc(Br)cc2cc(C(=O)N3CCN(C(=O)c4ccco4)CC3)c(=O)oc12,"inconclusive: 28.2 µM [quencher, side channel, single point]",
CC1=C(C)C(=O)C(N2CCOCC2)=CC1=O,,inactive: 4.03%
Cc1ccc2c(c1)N(C)/C(=C/c1cccc[n+]1CCO)S2,"inconclusive: 15.8 µM [quencher, partial curve]",
Cc1ccc(-n2cc(-c3ccccc3)c3c(NN4CCOCC4)ncnc32)cc1,"inconclusive: 25.1 µM [fluorescent, side channel, partial curve]",
CC(=O)Nc1ccc(C2Nc3cc(C)c(C)cc3NC3=C2C(=O)CC(C)(C)C3)cc1 (stereo unspecified),"inconclusive: 25.1 µM [quencher, side channel, single point]",
CCC(=O)Nc1ccc(-c2ccc(N3CCCCC3)nn2)cc1,"inconclusive: 39.8 µM [quencher, side channel, single point]",
COc1ccc(-c2cc(C(F)(F)F)n3nc(C(=O)NCCCn4ccnc4)cc3n2)cc1,"inconclusive: 15.8 µM [quencher, side channel, partial curve]",
OCC1(Cc2ccc(Cl)cc2)CCN(CCCc2ccccc2)CC1,,inactive: 2.86%
CCCCNC(=O)c1ccc2nc(-c3ccco3)c(-c3ccco3)nc2c1,"inconclusive: 20 µM [quencher, side channel, partial curve]",
CCN(CC)c1ccc(/C=N/n2c(C)nc3ccccc3c2=O)cc1,"inconclusive: 14.1 µM [quencher, partial curve]",
O=C1NC(=O)/C(=C/c2cccc(O)c2)N1,"inconclusive: 8.91 µM [quencher, side channel, full curve]",
CC1CCN(CCCNC(=O)C2CCC(CNS(=O)(=O)c3cccc4nsnc34)CC2)CC1 (stereo unspecified),"inconclusive: 8.91 µM [quencher, side channel, partial curve]",
CC(C)NC(=O)CSc1nc(-c2cccs2)cc(-c2ccccc2)c1C#N,"inconclusive: 50.1 µM [inhibitor, single point]",
COc1ccc(C(=O)OCCN2C(=O)c3ccccc3C2=O)cc1,,inactive: 10.2%
N#Cc1cc(C#N)c(N2CCN(c3cccc(Cl)n3)CC2)nc1N,"inconclusive: 31.6 µM [fluorescent, side channel, single point]",
CS(=O)(=O)N(Cc1ccccc1)c1ccc(C(=O)N2CCN(c3cccc(Cl)c3)CC2)cc1,,inactive: 5.69%
COc1ccc(/C=C(\CC(=O)O)c2nc3ccccc3o2)cc1,"inconclusive: 28.2 µM [quencher, side channel, single point]",
O=[N+]([O-])c1ccc(S(=O)(=O)Nc2nnc(C3CCCCC3)s2)cc1,"inconclusive: 22.4 µM [quencher, side channel, partial curve]",
CCC(=O)NC(=S)Nc1ccc(NC(=O)c2ccc(OC)cc2)cc1,"inconclusive: 0.398 µM [fluorescent, side channel, partial curve]",
COc1ccc(-c2cn3nc4c(nc3n2)CCCC4)cc1,"inconclusive: 12.6 µM [quencher, side channel, partial curve]",
C=CCn1c(=O)c(C#N)cc2c(=O)n3ccccc3nc21,"inconclusive: 6.31 µM [quencher, side channel, full curve]",
COc1ccc(-c2ccc(=O)n(Cc3ccccc3)n2)cc1,"inconclusive: 12.6 µM [quencher, side channel, partial curve]",
CNC(=S)NCc1ccc2[nH]c3c(c2c1)CCCC3,,inactive: 3.79%
Cc1nn(CC(=O)NCCCN2CCN(Cc3ccccc3)CC2)c(=O)c2cc(-c3ccccc3)nn12,,inactive: -2.6%
C=CCN(CC=C)C(=S)Nc1ccc2nsnc2c1,"inconclusive: 25.1 µM [quencher, side channel, partial curve]",
